No constants are given. Whether binding was seen depends on the method and setting. Binding seen in cells or lysates may run through a third protein. Some binding calls cover weakened binding; strength is not graded here. Where a sequence is shown, tags or fusion partners need not be part of it.
How the values were obtained:
Experiment in all cases: co-IP; TAP-tagged tof1 truncation proteins captured on IgG Sepharose from yeast lysates first treated with 100 U benzonase for 40 min at 4°C and cleared; 2 h, 4°C; lysis buffer 50 mM HEPES pH 7.5, 300 mM KCl; beads boiled in sample buffer; western blot for myc tagged Top1
[1] = target: T1, tof1 1182 truncation protein, C terminally TAP tagged (S. cerevisiae) (UniProt P53840)
T1 sequence: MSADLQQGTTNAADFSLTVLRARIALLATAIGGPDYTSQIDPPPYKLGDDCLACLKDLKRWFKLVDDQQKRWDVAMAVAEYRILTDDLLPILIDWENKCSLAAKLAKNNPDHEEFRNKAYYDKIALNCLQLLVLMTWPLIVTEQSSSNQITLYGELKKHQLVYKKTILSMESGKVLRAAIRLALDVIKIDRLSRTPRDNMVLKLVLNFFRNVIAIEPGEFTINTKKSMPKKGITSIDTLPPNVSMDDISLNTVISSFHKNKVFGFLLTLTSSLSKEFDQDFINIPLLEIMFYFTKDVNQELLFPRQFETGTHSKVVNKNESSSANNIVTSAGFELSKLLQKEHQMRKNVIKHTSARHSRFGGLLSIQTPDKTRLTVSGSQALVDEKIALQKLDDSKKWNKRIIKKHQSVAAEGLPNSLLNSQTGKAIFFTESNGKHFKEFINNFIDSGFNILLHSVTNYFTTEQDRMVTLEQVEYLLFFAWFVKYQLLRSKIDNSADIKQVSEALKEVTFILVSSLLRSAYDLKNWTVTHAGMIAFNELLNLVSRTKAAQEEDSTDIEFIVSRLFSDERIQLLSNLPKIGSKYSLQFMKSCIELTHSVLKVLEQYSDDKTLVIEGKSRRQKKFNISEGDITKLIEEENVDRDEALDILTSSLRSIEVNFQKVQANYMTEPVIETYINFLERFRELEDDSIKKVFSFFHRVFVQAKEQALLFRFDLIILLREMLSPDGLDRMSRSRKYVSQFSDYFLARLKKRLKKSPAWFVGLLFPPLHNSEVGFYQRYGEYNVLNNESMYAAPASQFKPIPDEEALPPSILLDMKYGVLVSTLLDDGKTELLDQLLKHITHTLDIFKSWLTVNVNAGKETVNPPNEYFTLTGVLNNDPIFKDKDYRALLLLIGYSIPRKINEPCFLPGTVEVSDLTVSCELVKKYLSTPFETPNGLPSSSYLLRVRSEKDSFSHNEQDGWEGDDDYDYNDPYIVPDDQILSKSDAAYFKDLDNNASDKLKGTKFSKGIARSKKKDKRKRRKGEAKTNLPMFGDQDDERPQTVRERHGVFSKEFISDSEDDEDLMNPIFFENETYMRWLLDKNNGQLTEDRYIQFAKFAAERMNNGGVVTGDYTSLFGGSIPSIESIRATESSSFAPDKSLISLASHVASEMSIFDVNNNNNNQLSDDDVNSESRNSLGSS

[2] = target: T2, tof1 627 truncation protein, C terminally TAP tagged (S. cerevisiae) (UniProt P53840)
T2 sequence: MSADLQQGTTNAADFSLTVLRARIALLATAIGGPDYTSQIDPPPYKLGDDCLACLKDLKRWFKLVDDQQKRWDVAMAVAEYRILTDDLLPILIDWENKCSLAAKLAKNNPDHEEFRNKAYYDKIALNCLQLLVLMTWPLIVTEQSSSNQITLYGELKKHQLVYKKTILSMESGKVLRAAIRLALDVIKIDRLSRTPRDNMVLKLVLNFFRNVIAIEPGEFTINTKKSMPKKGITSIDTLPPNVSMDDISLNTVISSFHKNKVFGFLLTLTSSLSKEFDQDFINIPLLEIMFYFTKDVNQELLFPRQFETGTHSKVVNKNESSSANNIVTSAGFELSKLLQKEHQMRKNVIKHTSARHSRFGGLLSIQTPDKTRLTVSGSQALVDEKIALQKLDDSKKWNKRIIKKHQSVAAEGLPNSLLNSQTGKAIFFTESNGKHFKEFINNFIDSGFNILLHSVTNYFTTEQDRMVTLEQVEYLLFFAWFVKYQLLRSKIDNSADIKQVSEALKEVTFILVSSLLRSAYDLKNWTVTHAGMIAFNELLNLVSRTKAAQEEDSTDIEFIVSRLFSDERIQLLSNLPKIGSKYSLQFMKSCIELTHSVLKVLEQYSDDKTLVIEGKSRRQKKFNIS

[3] = target: T3, tof1 997 truncation protein, C terminally TAP tagged (S. cerevisiae) (UniProt P53840)
T3 sequence: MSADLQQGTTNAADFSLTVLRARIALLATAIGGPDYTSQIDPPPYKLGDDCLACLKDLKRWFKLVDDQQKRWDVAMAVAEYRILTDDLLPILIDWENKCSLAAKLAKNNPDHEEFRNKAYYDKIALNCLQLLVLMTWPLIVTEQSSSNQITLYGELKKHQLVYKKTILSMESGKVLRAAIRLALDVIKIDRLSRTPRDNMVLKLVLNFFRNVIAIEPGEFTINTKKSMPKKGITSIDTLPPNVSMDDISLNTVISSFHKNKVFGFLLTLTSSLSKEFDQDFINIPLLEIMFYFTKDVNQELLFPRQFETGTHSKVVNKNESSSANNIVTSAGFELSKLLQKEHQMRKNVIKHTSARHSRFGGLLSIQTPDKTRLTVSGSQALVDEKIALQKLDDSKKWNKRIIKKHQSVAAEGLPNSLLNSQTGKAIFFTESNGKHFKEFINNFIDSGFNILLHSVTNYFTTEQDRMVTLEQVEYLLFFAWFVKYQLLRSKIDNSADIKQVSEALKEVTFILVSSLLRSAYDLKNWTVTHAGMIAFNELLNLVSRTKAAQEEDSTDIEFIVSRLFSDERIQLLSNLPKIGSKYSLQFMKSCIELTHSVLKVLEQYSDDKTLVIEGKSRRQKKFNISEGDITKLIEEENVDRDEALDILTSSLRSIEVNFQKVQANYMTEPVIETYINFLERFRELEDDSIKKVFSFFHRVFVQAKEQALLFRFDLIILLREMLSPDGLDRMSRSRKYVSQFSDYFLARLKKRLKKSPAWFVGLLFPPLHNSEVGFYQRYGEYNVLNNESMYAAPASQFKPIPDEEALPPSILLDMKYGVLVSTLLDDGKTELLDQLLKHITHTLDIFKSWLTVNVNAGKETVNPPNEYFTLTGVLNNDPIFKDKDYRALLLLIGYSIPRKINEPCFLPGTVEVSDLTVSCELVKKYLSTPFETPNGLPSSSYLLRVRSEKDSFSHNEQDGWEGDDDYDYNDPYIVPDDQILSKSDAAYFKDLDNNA

B1: myc tagged Top1 protein (enzyme, UniProt P04786 1-769)
chain: MTIADASKVNHELSSDDDDDVPLSQTLKKRKVASMNSASLQDEAEPYDSDEAISKISKKKTKKIKTEPVQSSSLPSPPAKKSATSKPKKIKKEDGDVKVKTTKKEEQENEKKKREEEEEEDKKAKEEEEEYKWWEKENEDDTIKWVTLKHNGVIFPPPYQPLPSHIKLYYDGKPVDLPPQAEEVAGFFAALLESDHAKNPVFQKNFFNDFLQVLKESGGPLNGIEIKEFSRCDFTKMFDYFQLQKEQKKQLTSQEKKQIRLEREKFEEDYKFCELDGRREQVGNFKVEPPDLFRGRGAHPKTGKLKRRVNPEDIVLNLSKDAPVPPAPEGHKWGEIRHDNTVQWLAMWRENIFNSFKYVRLAANSSLKGQSDYKKFEKARQLKSYIDAIRRDYTRNLKSKVMLERQKAVAIYLIDVFALRAGGEKSEDEADTVGCCSLRYEHVTLKPPNTVIFDFLGKDSIRFYQEVEVDKQVFKNLTIFKRPPKQPGHQLFDRLDPSILNKYLQNYMPGLTAKVFRTYNASKTMQDQLDLIPNKGSVAEKILKYNAANRTVAILCNHQRTVTKGHAQTVEKANNRIQELEWQKIRCKRAILQLDKDLLKKEPKYFEEIDDLTKEDEATIHKRIIDREIEKYQRKFVRENDKRKFEKEELLPESQLKEWLEKVDEKKQEFEKELKTGEVELKSSWNSVEKIKAQVEKLEQRIQTSSIQLKDKEENSQVSLGTSKINYIDPRLSVVFCKKYDVPIEKIFTKTLREKFKWAIESVDENWRF
- binding [1]: binds
- binding [2]: no binding
- binding [3]: no binding

Reference: article PMC7708041
